# Test results from the supplement of paper PMC8728848.
# Some of the results follow.
# B1: ClecSol-Fc (Cryptosporidium parvum) (protein)
# chain: CPEGWISNGEKTRCFKLVTFDRPRTFSHGFKACNDLGGTEVETRRRNGSKETNEYPVTLASVYKLSDEEAIRRTLVEQGDIHKTANGCFVGLRKYAFFRYPPGWYWIDSGSPVSVRDSEINWTSSYNASWLLRFKFPFEKCGFFDIGGLGRRPCWLIDSELSCAVCGTVAYDSGGLNPNKYSELIKQTDEIISKEPKLDLPGYNNLNCTDAWENNLSVGLCQNVSNILDSAWSSYQSSLNFPSINFNWKEDSTNEGGDQVYHNSYLDLPRYKQKKTFYWDQDPGTIPALSDEMKLIGLSAQPTYHPLDRSSSGSFESDSTESGRANEERNDTLEEMIYKQSSDSIEDILVPVTKPIFSDYSSIGRNSGVEEVYSSNVSTISSKGVVFPNTTTSSDNDFTKNNPANSSKHTSTSTTTNTTTTTTRTTTTTTTTTTTTTTTTTTTTETTTTKKSTTATKNTTTT
# Assays:
# Experiment in all cases: glycan array binding signal (z-score within array); higher = stronger binding
# Conditions in all cases: glycan notation: IUPAC condensed, linker removed
# [1] = molecular target: Fuc(a1-3)[Gal3S(b1-4)]GlcNAc6S
# Procedure, shortened: (§1)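 The binding signal is a Z-score computed within each array and averaged over linkers. Arrays of the same protein sequence at different concentrations or buffers were also averaged together. Data originate from 3228 arrays in the Consortium for Functional Glycomics database, kept only where the protein sequence was available.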
# [2] = molecular target: Fuc(a1-3)[GalNAc(b1-4)]GlcNAc
# Procedure, shortened: as §1
# [3] = molecular target: Fuc(a1-3)[GalNAc(b1-4)]GlcNAc6S
# Procedure, shortened: as §1
# Fuc(a1-4)GlcNAc = molecular target: Fuc(a1-4)GlcNAc
# Procedure, shortened: as §1
# Fuc(b1-3)GlcNAc = molecular target: Fuc(b1-3)GlcNAc
# Procedure, shortened: as §1
# Gal(a1-2)Gal = molecular target: Gal(a1-2)Gal
# Procedure, shortened: as §1
# Gal(a1-3)Gal = molecular target: Gal(a1-3)Gal
# Procedure, shortened: as §1
# Gal(a1-3)Gal(b1-3)GlcNAc = molecular target: Gal(a1-3)Gal(b1-3)GlcNAc
# Procedure, shortened: as §1
# [4] = molecular target: Gal(a1-3)Gal(b1-3)GlcNAc(b1-2)Man
# Procedure, shortened: as §1
# [5] = molecular target: Gal(a1-3)Gal(b1-3)GlcNAc(b1-2)Man(a1-3)[Gal(a1-3)Gal(b1-3)GlcNAc(b1-2)Man(a1-6)]Man(b1-4)GlcNAc(b1-4)GlcNAc
# Procedure, shortened: as §1
# [6] = molecular target: Gal(a1-3)Gal(b1-3)GlcNAc(b1-3)GalNAc
# Procedure, shortened: as §1
# [7] = molecular target: Gal(a1-3)Gal(b1-3)GlcNAc(b1-6)GalNAc
# Procedure, shortened: as §1
# [8] = molecular target: Gal(a1-3)Gal(b1-3)[Fuc(a1-4)]GlcNAc(b1-2)Man(a1-3)[Gal(a1-3)Gal(b1-3)[Fuc(a1-4)]GlcNAc(b1-2)Man(a1-6)]Man(b1-4)GlcNAc(b1-4)GlcNAc
# Procedure, shortened: as §1
# Gal(a1-3)Gal(b1-4)Glc = molecular target: Gal(a1-3)Gal(b1-4)Glc
# Procedure, shortened: as §1
# Gal(a1-3)Gal(b1-4)GlcNAc = molecular target: Gal(a1-3)Gal(b1-4)GlcNAc
# Procedure, shortened: as §1
# [9] = molecular target: Gal(a1-3)Gal(b1-4)GlcNAc(b1-2)Man
# Procedure, shortened: as §1
# [10] = molecular target: Gal(a1-3)Gal(b1-4)GlcNAc(b1-2)Man(a1-3)[Gal(a1-3)Gal(b1-4)GlcNAc(b1-2)Man(a1-6)]Man(b1-4)GlcNAc(b1-4)GlcNAc
# Procedure, shortened: as §1
# [11] = molecular target: Gal(a1-3)Gal(b1-4)GlcNAc(b1-3)GalNAc
# Procedure, shortened: as §1
# [12] = molecular target: Gal(a1-3)Gal(b1-4)GlcNAc(b1-6)GalNAc
# Procedure, shortened: as §1
# [13] = molecular target: Gal(a1-3)Gal(b1-4)[Fuc(a1-3)]GlcNAc
# Procedure, shortened: as §1
# [14] = molecular target: Gal(a1-3)Gal(b1-4)[Fuc(a1-3)]GlcNAc(b1-2)Man(a1-3)[Gal(a1-3)Gal(b1-4)[Fuc(a1-3)]GlcNAc(b1-2)Man(a1-6)]Man(b1-4)GlcNAc(b1-4)GlcNAc
# Procedure, shortened: as §1
# Gal(a1-3)GalNAc = molecular target: Gal(a1-3)GalNAc
# Procedure, shortened: as §1
# [15] = molecular target: Gal(a1-3)[Gal(a1-4)]Gal(b1-4)GlcNAc
# Procedure, shortened: as §1
# [16] = molecular target: Gal(a1-4)Gal(b1-3)GlcNAc(b1-2)Man(a1-3)[Gal(a1-4)Gal(b1-3)GlcNAc(b1-2)Man(a1-6)]Man(b1-4)GlcNAc(b1-4)GlcNAc
# Procedure, shortened: as §1
# Gal(a1-4)Gal(b1-4)Glc = molecular target: Gal(a1-4)Gal(b1-4)Glc
# Procedure, shortened: as §1
# Gal(a1-4)Gal(b1-4)GlcNAc = molecular target: Gal(a1-4)Gal(b1-4)GlcNAc
# Procedure, shortened: as §1
# [17] = molecular target: Gal(a1-4)Gal(b1-4)GlcNAc(b1-2)Man(a1-3)[Gal(a1-4)Gal(b1-4)GlcNAc(b1-2)Man(a1-6)]Man(b1-4)GlcNAc(b1-4)GlcNAc
# Procedure, shortened: as §1
# [18] = molecular target: Gal(a1-4)Gal(b1-4)GlcNAc(b1-3)Gal(b1-4)Glc
# Procedure, shortened: as §1
# Gal(a1-4)GlcNAc = molecular target: Gal(a1-4)GlcNAc
# Procedure, shortened: as §1
# Gal(a1-6)Glc = molecular target: Gal(a1-6)Glc
# Procedure, shortened: as §1
# Gal(b1-2)Gal = molecular target: Gal(b1-2)Gal
# Procedure, shortened: as §1
# Gal(b1-3)Gal = molecular target: Gal(b1-3)Gal
# Procedure, shortened: as §1
# Gal(b1-3)Gal(b1-4)GlcNAc = molecular target: Gal(b1-3)Gal(b1-4)GlcNAc
# Procedure, shortened: as §1
# Gal(b1-3)GalNAc = molecular target: Gal(b1-3)GalNAc
# Procedure, shortened: as §1
# [19] = molecular target: Gal(b1-3)GalNAc(a1-3)[Fuc(a1-2)]Gal(b1-4)Glc
# Procedure, shortened: as §1
# [20] = molecular target: Gal(b1-3)GalNAc(a1-3)[Fuc(a1-2)]Gal(b1-4)GlcNAc
# Procedure, shortened: as §1
# Gal(b1-3)GalNAc(b1-3)Gal = molecular target: Gal(b1-3)GalNAc(b1-3)Gal
# Procedure, shortened: as §1
# [21] = molecular target: Gal(b1-3)GalNAc(b1-3)Gal(a1-4)Gal(b1-4)Glc
# Procedure, shortened: as §1
# [22] = molecular target: Gal(b1-3)GalNAc(b1-4)Gal(b1-4)Glc
# Procedure, shortened: as §1
# [23] = molecular target: Gal(b1-3)GalNAc(b1-4)[Neu5Ac(a2-3)]Gal(b1-4)Glc
# Procedure, shortened: as §1
# Gal(b1-3)GlcNAc = molecular target: Gal(b1-3)GlcNAc
# Procedure, shortened: as §1
# [24] = molecular target: Gal(b1-3)GlcNAc(a1-3)Gal(b1-4)GlcNAc
# Procedure, shortened: as §1
# [25] = molecular target: Gal(b1-3)GlcNAc(a1-6)Gal(b1-4)GlcNAc
# Procedure, shortened: as §1
# Gal(b1-3)GlcNAc(b1-2)Man = molecular target: Gal(b1-3)GlcNAc(b1-2)Man
# Procedure, shortened: as §1
# [26] = molecular target: Gal(b1-3)GlcNAc(b1-2)Man(a1-3)[Gal(b1-3)GlcNAc(b1-2)Man(a1-6)]Man(b1-4)GlcNAc(b1-4)GlcNAc
# Procedure, shortened: as §1
binder,measurement,setting,value
B1,glycan array binding signal (z-score),[1],0.082
same,glycan array binding signal (z-score),[2],0.055
same,glycan array binding signal (z-score),[3],-0.242
same,glycan array binding signal (z-score),Fuc(a1-4)GlcNAc,-0.052
same,glycan array binding signal (z-score),Fuc(b1-3)GlcNAc,-0.044
same,glycan array binding signal (z-score),Gal(a1-2)Gal,0.039
same,glycan array binding signal (z-score),Gal(a1-3)Gal,-0.307
same,glycan array binding signal (z-score),Gal(a1-3)Gal(b1-3)GlcNAc,0.156
same,glycan array binding signal (z-score),[4],-0.009
same,glycan array binding signal (z-score),[5],-0.058
same,glycan array binding signal (z-score),[6],0.185
same,glycan array binding signal (z-score),[7],-0.177
same,glycan array binding signal (z-score),[8],0.183
same,glycan array binding signal (z-score),Gal(a1-3)Gal(b1-4)Glc,-0.003
same,glycan array binding signal (z-score),Gal(a1-3)Gal(b1-4)GlcNAc,-0.137
same,glycan array binding signal (z-score),[9],-0.243
same,glycan array binding signal (z-score),[10],-0.124
same,glycan array binding signal (z-score),[11],-0.245
same,glycan array binding signal (z-score),[12],0.163
same,glycan array binding signal (z-score),[13],-0.198
same,glycan array binding signal (z-score),[14],0.063
same,glycan array binding signal (z-score),Gal(a1-3)GalNAc,-0.136
same,glycan array binding signal (z-score),[15],-0.114
same,glycan array binding signal (z-score),[16],-0.159
same,glycan array binding signal (z-score),Gal(a1-4)Gal(b1-4)Glc,-0.197
same,glycan array binding signal (z-score),Gal(a1-4)Gal(b1-4)GlcNAc,-0.064
same,glycan array binding signal (z-score),[17],-0.072
same,glycan array binding signal (z-score),[18],-0.186
same,glycan array binding signal (z-score),Gal(a1-4)GlcNAc,-0.167
same,glycan array binding signal (z-score),Gal(a1-6)Glc,-0.228
same,glycan array binding signal (z-score),Gal(b1-2)Gal,-0.18
same,glycan array binding signal (z-score),Gal(b1-3)Gal,-0.059
same,glycan array binding signal (z-score),Gal(b1-3)Gal(b1-4)GlcNAc,-0.094
same,glycan array binding signal (z-score),Gal(b1-3)GalNAc,-0.117
same,glycan array binding signal (z-score),[19],-0.248
same,glycan array binding signal (z-score),[20],0.061
same,glycan array binding signal (z-score),Gal(b1-3)GalNAc(b1-3)Gal,0.033
same,glycan array binding signal (z-score),[21],0.031
same,glycan array binding signal (z-score),[22],-0.075
same,glycan array binding signal (z-score),[23],-0.256
same,glycan array binding signal (z-score),Gal(b1-3)GlcNAc,-0.084
same,glycan array binding signal (z-score),[24],-0.002
same,glycan array binding signal (z-score),[25],-0.267
same,glycan array binding signal (z-score),Gal(b1-3)GlcNAc(b1-2)Man,0.452
same,glycan array binding signal (z-score),[26],-0.166
